The full ranking holds about 33,000 sequences; the median of “E-score (-0.5 to 0.5)” is about -0.041, and the highest 2% start at about 0.37. Some of the results follow.
These sequences were tested against T1, Ecm22 (UniProt Q05958) (assay: PBM E-score (8-mer binding enrichment) (E-score (-0.5 to 0.5)); higher = stronger / more preferred TF binding; most listed sequences are background and not binding sites). Conditions: protein concentration: 200 nM; construct: GST-full length.
T1 sequence: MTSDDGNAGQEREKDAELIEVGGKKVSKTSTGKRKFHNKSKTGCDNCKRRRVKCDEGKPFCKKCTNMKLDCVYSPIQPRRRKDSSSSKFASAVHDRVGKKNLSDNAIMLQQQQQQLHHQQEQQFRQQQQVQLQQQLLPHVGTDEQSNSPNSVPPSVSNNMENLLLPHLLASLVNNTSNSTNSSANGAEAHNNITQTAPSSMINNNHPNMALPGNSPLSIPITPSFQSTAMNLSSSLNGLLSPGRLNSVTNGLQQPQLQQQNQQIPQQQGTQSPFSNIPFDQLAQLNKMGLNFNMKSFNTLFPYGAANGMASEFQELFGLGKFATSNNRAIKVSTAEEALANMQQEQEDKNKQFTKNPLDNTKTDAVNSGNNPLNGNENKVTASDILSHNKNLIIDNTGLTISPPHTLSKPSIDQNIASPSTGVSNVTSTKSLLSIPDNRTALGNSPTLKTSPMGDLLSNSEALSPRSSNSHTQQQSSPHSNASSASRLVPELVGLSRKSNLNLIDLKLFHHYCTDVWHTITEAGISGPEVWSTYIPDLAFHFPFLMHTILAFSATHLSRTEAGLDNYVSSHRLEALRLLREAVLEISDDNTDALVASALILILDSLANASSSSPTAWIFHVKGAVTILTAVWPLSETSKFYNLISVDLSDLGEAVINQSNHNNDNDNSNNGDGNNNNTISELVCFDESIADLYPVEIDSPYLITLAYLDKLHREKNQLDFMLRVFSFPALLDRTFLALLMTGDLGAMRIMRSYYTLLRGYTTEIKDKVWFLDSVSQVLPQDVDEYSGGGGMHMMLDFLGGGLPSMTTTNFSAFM
Outline: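 Detection of bound protein used fluorescent anti-GST, with scans normalised by masliner. The proteins were GST-tagged yeast transcription factors applied at about 100-200 nM to universal all-10-mer Agilent arrays made double-stranded by primer extension. Each ungapped eight-base word, pooled with its reverse complement, was scored with an E-score from the Universal PBM Analysis Suite.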

| Sequence | PBM E-score |
| --- | --- |
| GTAAGTGA | 0.134 |
| ACTTGCTA | -0.215 |
| GGTCGGAA | 0.161 |
| AGGACGTA | -0.0985 |
| ATGCACAG | -0.0432 |
| CAGTCAAC | 0.0317 |
| AAAACAGG | -0.288 |
| AGCCTGAG | -0.224 |
| CAGTTTTC | -0.0483 |
| AGACAACC | -0.0137 |
| AATGTCAA | -0.135 |
| ATATTTAG | -0.121 |
| GATCCGGA | 0.042 |
| ATAGCATC | -0.162 |
| ATACGGCG | 0.406 |
| AATTTCGC | 0.116 |
| CGCCAGAA | 0.171 |
| CATTCCAA | -0.0774 |
| TTAGGAAA | -0.227 |
| AAGCTCCA | -0.0661 |
| ACCGGCCC | -0.085 |
| CTAGAAGA | -0.0952 |
| AGGAATAC | 0.0181 |
| TGGGGCAA | -0.172 |
| GCGGTCGA | 0.202 |

| Sequence | PBM E-score |
| --- | --- |
| CGGGTATC | 0.105 |
| GGGTTATA | -0.0775 |
| ATACACAG | -0.0736 |
| CATAAAGC | -0.164 |
| GCATCGAC | 0.0138 |
| TAACCCCA | -0.181 |
| CGGCCACC | -0.135 |
| CCAATGAC | -0.169 |
| GATCGTTA | 0.211 |
| CCAGGCGA | -0.359 |
| ATCAGCTG | 0.0299 |
| CTTCCGAA | 0.0953 |
| GATGACGA | 0.0108 |
| AGGACACA | -0.0101 |
| CACCAGAA | 0.0178 |
| TCCTAAAA | -0.0284 |
| ATACCAAC | 0.00422 |
| AATTGCTG | 0.0491 |
| ACACGGCT | -0.0933 |
| GGAGACGA | 0.217 |
| CCCTTGCA | -0.21 |
| GCCATGAA | -0.149 |
| CATACGCG | 0.269 |
| ATGCGGCC | -0.082 |
| GTCAGACA | -0.161 |

| Sequence | PBM E-score |
| --- | --- |
| TCTAACAA | -0.0866 |
| TCCCGGCA | -0.0828 |
| CCAATCAC | 0.0721 |
| CAAGAAAG | -0.029 |
| CCACCCCC | -0.252 |
| CTTGTATA | -0.0567 |
| AGGAACCA | -0.167 |
| GTCTGTGA | -0.0168 |
| AGTACTGC | -0.0559 |
| ATGTGCTG | -0.121 |
| AGCCCTGA | -0.316 |
| AGGAATCA | -0.0892 |
| CCTTTGCG | 0.0545 |
| AATTCTAT | -0.104 |
| GGCCCGTA | 0.295 |
| ACTGAATC | -0.0645 |
| GAGTCGTA | 0.43 |
| GTTGTGTA | 0.158 |
| CTTCACCA | -0.258 |
| ACACTCAG | -0.0964 |
| AGGAAATA | 0.108 |
| TGTCAAAA | -0.124 |
| ACAGTGTC | 0.00024 |
| CACTTCCC | -0.128 |
| ATTTTGGA | -0.0949 |

| Sequence | PBM E-score |
| --- | --- |
| AATTGTAT | -0.0868 |
| AAAAAAGG | -0.119 |
| CTGAAATC | -0.0402 |
| CTCTAGGA | -0.3 |
| CAGGACAA | 0.0683 |
| GAAAATCA | 0.08 |
| CCGGCCGC | -0.348 |
| CCGTACGA | 0.445 |
| CCCACGTA | 0.0287 |
| AGTCATGC | 0.0199 |
| GTGGGCGA | -0.205 |
| GTATTCGA | 0.118 |
| ACGGATCT | 0.0941 |
| CCGGAGAC | 0.071 |
| ATAGAACC | -0.199 |
| CAGAGGAC | -0.085 |
| ACTAGTAT | 0.0326 |
| ACAGACCA | -0.0504 |
| GCGTTGTA | 0.0998 |
| CCATGAAA | -0.132 |
| CTAGCCAC | -0.257 |
| AGCTACGC | 0.141 |
| TAAAGAAA | 0.00425 |
| ACGTTAGG | -0.0037 |
| ACGAACGC | 0.362 |

| Sequence | PBM E-score |
| --- | --- |
| CGCGGATA | 0.188 |
| ACTGAAAA | 0.105 |
| ATCACCAG | -0.103 |
| GGTAGTCA | -0.205 |
| CTTCTCTC | 0.0461 |
| ACGCCTCG | 0.263 |
| CTTAGCTA | -0.139 |
| ACAAGGGT | -0.0591 |
| AGTAGCAC | -0.138 |
| TCATGGAA | -0.00955 |
| GGAACTCA | -0.183 |
| TCATAGGA | -0.0828 |
| AAGGATAG | -0.184 |
| CTGACCGC | 0.024 |
| ACATGGGT | -0.17 |
| ACCTTTGA | -0.207 |
| ATCCTCAA | -0.151 |
| ATTACGCG | 0.0777 |
| ACGTCATG | 0.0391 |
| ACCAGCGA | -0.0336 |
| CGGGTAAC | 0.181 |
| GCAATCGA | -0.0333 |
| CAGCCGCA | 0.0726 |
| GAATTCAC | 0.0616 |
| GTATCCAA | 0.0998 |

| Sequence | PBM E-score |
| --- | --- |
| CCATGTGA | -0.191 |
| CACCGGAA | 0.151 |
| CTCGTTGA | 0.277 |
| TCCAATCA | -0.115 |
| AAATTAGA | -0.08 |
| GAAAGTCC | -0.254 |
| ATTGACAG | -0.041 |
| GGTACTAC | 0.0611 |
| CTTCGGGC | -0.0609 |
| AGTGGCAT | 0.0357 |
| CCACTAAG | -0.13 |
| CGCAGTTC | 0.17 |
| AGTAGCCC | -0.197 |
| GCGAAGCA | 0.0616 |
| AGATTTTA | -0.266 |
| GGAGGACC | -0.252 |
| TATTGGGA | -0.0384 |
| CCCGATTA | 0.0805 |
| CACCGATG | -0.00617 |
| AGACTCAG | -0.118 |
| AGGACTGC | -0.252 |
| CTGCACAG | -0.0509 |
| AGGGATGG | -0.051 |
| TAGCTAAA | 0.0517 |
| GGGAAGAC | -0.053 |

| Sequence | PBM E-score |
| --- | --- |
| CGGACTAA | -0.0219 |
| AGTTTTGC | 0.0511 |
| ACGACGCA | 0.412 |
| AATCCCCA | -0.177 |
| CACACCAG | -0.165 |
| CGATATCA | 0.171 |
| CACCGTCC | -0.114 |
| GCCGGTGA | -0.168 |
| AATCGCCG | 0.121 |
| CCGACACA | -0.00241 |
| ATTATATA | 0.134 |
| AGGCCGCA | -0.0419 |
| TCGCTAAA | 0.34 |
| AGGTCCAT | -0.239 |
| CACTCACA | -0.0277 |
| ACTGTTCA | -0.159 |
| AGTAACGA | 0.311 |
| AGGAACTC | -0.0377 |
| GACACATA | -0.0529 |
| AAGCGACA | 0.23 |
| CGCTTGAG | -0.0735 |
| AACGCAGC | 0.113 |

Source: the supplement of paper PMC3334620
